The record followed here is ChEMBL document CHEMBL4888484, “Replenishing the malaria drug discovery pipeline: Screening and hit evaluation of the MMV Hit Generation Library 1 (HGL1) against asexual blood stage Plasmodium falciparum ,using a nano luciferase reporter read-out” (2022).

The campaign covered roughly 150,000 compounds. About 540 (0.36%) showed an effect of 50% or more. The list shows a part of the results.

The test system of the assay is Plasmodium falciparum. As to the kind of experiment: Primary screen in NF54 nanoGlo assay, in single point, at 2uM, 72h; a lower Z score goes with more inhibition. The assay is classed as functional, Erythrocyte. Conditions: timepoint 72 hour.
The % Inhibition is the drop in the measured response relative to a control, in per cent. As to `COc1cc2c(=O)[nH]cnc2cc1OCc1ccccc1`, the “% Inhibition” value is -15% and the Z score stood at 1.71.

Turning to `CC(C)n1nccc1C(=O)N1CCC2(CN(C)C2)C1`, the “% Inhibition” value was determined as 8% and the Z score is given as -1.59.

For the compound `CCC[C@H](NC(=O)c1n[nH]c(=O)[nH]1)c1nccn1C`, the “% Inhibition” value is on record as -11% and the Z score is given as 1.3.

In the case of `Cc1ccsc1C(C)NCC1(O)CCOC1` (configuration not stated), the “% Inhibition” value is listed as -3% and the Z score was determined as 0.36.

For the compound `O=C1OCC2(CCN(CC(c3ccccc3)c3ccccc3)CC2)O1`, the “% Inhibition” value was -4% and the Z score was 0.59.

Turning to `O=S(=O)(NCCc1ccc(-c2ccsc2)s1)C1CC1`, the “% Inhibition” value is listed as -7% and the Z score is 0.97.

In the case of `CCc1ccc(CN[C@@H](C)C2=CCCCC2)nc1`, the “% Inhibition” value was -1% and the Z score was 0.1.

Turning to `CCc1cc(C(=O)NCCN2CCc3ccccc3C2=O)oc1CC`, the “% Inhibition” value is listed as -6% and the Z score was determined as 0.89.

`COC(=O)c1c(NC(C)=O)c2cc(N[C@H]3CCc4ccccc4C3)cnc2n1CCC(C)C`: the “% Inhibition” value came to 10% and the Z score is given as -1.26.

For `Cc1nccn1C[C@H]1CCCN(Cc2cc3c(cc2Cl)OCO3)C1`, the “% Inhibition” value amounted to 12% and the Z score is on record as -1.63.

With `CC[C@H](C)CS(=O)(=O)Cc1cc(C)on1`, the “% Inhibition” value is recorded as -12% and the Z score was 1.11.

For the compound `CC1(C)CN(C(=O)Cn2cc(Br)ccc2=O)CCO1`, the “% Inhibition” value is on record as -12% and the Z score stood at 2.36.

`Cn1ccn2ncc(C(=O)NCC3(COc4ccccc4)CC3)c12`: the “% Inhibition” value is reported as -1% and the Z score was 0.15.

Consider `CN(Cc1cccs1)C(=O)c1cccc2cn[nH]c12`, for which the “% Inhibition” value was -5% and the Z score stood at 0.85.

For `O=C(NCC(=O)N1CCc2ccccc2C1)c1cccs1`, the “% Inhibition” value was -8% and the Z score was found to be 0.69.

On to `COCCn1ccc(NC(=O)C(=O)N(C)Cc2cccc(C)c2)n1`, for which the “% Inhibition” value is reported as -5% and the Z score is 0.85.

On to `CCCC[C@@H](c1cccnc1)N(C)Cc1cncn1C(C)C`, for which the “% Inhibition” value is given as -8% and the Z score turned out to be 0.84.

On to `Cc1ccc(CN2CCCn3nc(C(=O)NCCC(=O)N4CCN(C)CC4)cc3C2=O)cc1`, for which the “% Inhibition” value is reported as -14% and the Z score stood at 1.92.

On to `CCCCN(C)C(=NCC)NC1CCC1`, for which the “% Inhibition” value is reported as -16% and the Z score is reported as 2.84.

For `O=C1N(CCCc2ccccc2)CCC[C@@]1(O)CN1CCC2(CC1)OCCO2`, the “% Inhibition” value is reported as 11% and the Z score is -1.44.

Take `CCNC(=O)[C@@H]1C[C@@H](N)CN1Cc1cccc2ccccc12`: the “% Inhibition” value is on record as 16% and the Z score is listed as -2.24.

Take `CCCOC1(c2noc([C@@H]3Cc4ccccc4N3C(C)=O)n2)CCCCC1`: the “% Inhibition” value came out at 3% and the Z score is reported as -0.54.

For the compound `CC1(c2cc(NC(=O)NC[C@]34C[C@H]3COC43CCC3)no2)CCCC1`, the “% Inhibition” value is given as -2% and the Z score was 0.27.

As for `CS(=O)(=O)CCOCCNc1nc(C(F)(F)F)cs1`, the “% Inhibition” value is recorded as -14% and the Z score was found to be 1.88.

In the case of `C=CCN(CC=C)C(=O)Cc1ccc(C)cc1`, the “% Inhibition” value is on record as -5% and the Z score amounted to 0.89.

With `CCCc1nc(C)c(CNC(=O)[C@@H]2CCCCCN2C)s1`, the “% Inhibition” value is -11% and the Z score is listed as 1.56.

Take `O=C(Cn1cc(OCc2ccccc2)c(=O)cc1CO)Nc1cccnc1`: the “% Inhibition” value came to 35% and the Z score is given as -3.93.

Take `Cc1noc(COCC(=O)N2CC3(CCC3)[C@@H]2C2CC2)n1`: the “% Inhibition” value came to 4% and the Z score is listed as -0.65.

For `CCS(=O)(=O)c1ccc(N2CCC(NC(=O)C3CCCC3)CC2)cc1`, the “% Inhibition” value is -3% and the Z score came to 0.53.

For the compound `Cn1nncc1S(=O)(=O)N1CCNC[C@H]1c1cccc(F)c1`, the “% Inhibition” value is reported as 11% and the Z score is -1.39.

Turning to `COCCn1ncc2c1[C@@H](NC(=O)c1[nH]ccc1C1CC1)CCC2`, the “% Inhibition” value came to 0% and the Z score is reported as -0.07.

For `COc1ccccc1N(c1nc(-c2ccc(C)cc2)cs1)[C@@H](C)C(=O)N1CCCC1`, the “% Inhibition” value worked out at 5% and the Z score is reported as -0.61.

For `Cc1ccc(-n2ncc3c(O)c(-c4nc(-c5cccc(F)c5)no4)c(=O)[nH]c32)cc1`, the “% Inhibition” value is on record as -3% and the Z score was found to be 0.34.

As for `O=C(NCC1CCN(C(=O)c2ccc(-n3cnnn3)cc2O)CC1)c1ccco1`, the “% Inhibition” value was 8% and the Z score is -1.1.

For `Cc1noc2ncnc(NCc3ccc(Br)cc3)c12`, the “% Inhibition” value is recorded as -14% and the Z score turned out to be 2.27.

For `O=C(CCc1ccccc1)Nc1ccc(NC(=O)c2ccco2)cc1`, the “% Inhibition” value is listed as -6% and the Z score is 1.19.

For the compound `Cc1oc(-c2ccsc2)nc1CN(CCO)C(C)C`, the “% Inhibition” value came out at 19% and the Z score is given as -2.44.

Turning to `COc1cc(NC(=O)N2Cc3cn[nH]c3CC(C)(C)C2)cc(Cl)c1OC`, the “% Inhibition” value is -5% and the Z score came to 0.72.

Turning to `Cc1nc(C2CCCN2CC(=O)N2CCCCC2C)cs1` (configuration not stated), the “% Inhibition” value is given as -3% and the Z score came to 0.4.

In the case of `CS(=O)(=O)c1ccc(NC(=O)CCc2cccs2)cc1Cl`, the “% Inhibition” value is reported as -21% and the Z score turned out to be 2.7.

As for `O=C(C[C@H](c1cccc(Cl)c1)c1cn(Cc2ccccc2)c2ccccc12)NCc1ccncc1`, the “% Inhibition” value is recorded as -1% and the Z score is recorded as 0.09.

As to `O=C1C(CN2CCCCC2)CCCC1CN1CCCCC1` (configuration not stated), the “% Inhibition” value is -1% and the Z score worked out at 0.07.

For `O=C(OCc1cc(Cl)c2c(c1)OCO2)c1cc(-c2ccccn2)no1`, the “% Inhibition” value is -14% and the Z score is 1.68.

Turning to `COc1cccc(-c2noc(C(F)(F)c3ccccn3)n2)c1`, the “% Inhibition” value was -10% and the Z score was 1.53.

As to `CC(C)c1noc(CN2C(=O)COc3cccnc32)n1`, the “% Inhibition” value is listed as -7% and the Z score is 1.29.

With `O=C(Nc1ccc2c(c1)C(=O)N1CCC[C@H]1C(O)=N2)c1cncc(Br)c1`, the “% Inhibition” value is recorded as -3% and the Z score amounted to 0.33.

`O=C(NC[C@H]1CCCO1)c1csc(N2CCN(c3cccc(Cl)c3)CC2)n1`: the “% Inhibition” value is listed as -1% and the Z score is 0.16.

On to `C[C@H]1CCCN(S(=O)(=O)N(C)Cc2ncnn2C)C1`, for which the “% Inhibition” value is 1% and the Z score is -0.07.

Regarding `O=C(OCc1cccnc1)N1CCC(S(=O)(=O)Cc2ccccc2)CC1`, the “% Inhibition” value is on record as -11% and the Z score was found to be 1.75.

For `Nc1ncc(C(=O)N2CCC3(CCCCCC3)C2)s1`, the “% Inhibition” value came to 97% and the Z score is on record as -17.77.

As to `COCCN(CCOC)C(=O)c1[nH]nc(C(C)C)c1Br`, the “% Inhibition” value was -1% and the Z score is recorded as 0.2.

For the compound `Clc1ccc2c(c1)[C@H]1OCCC[C@H]1C(c1ccccc1)N2` (some centres not stated), the “% Inhibition” value was -1% and the Z score is on record as 0.21.

Turning to `Cc1nnc2c(N3CCN(C(=O)Cc4c(F)cccc4Cl)CC3)nccn12`, the “% Inhibition” value is recorded as -15% and the Z score was 2.58.

For the compound `O[C@@H](CNCc1cc(Cl)ccc1F)c1cccnc1`, the “% Inhibition” value is -2% and the Z score came out at 0.41.

`N#Cc1ccc(CN2CCn3nc(CCC(=O)NC4CCCC4)cc3C2)cc1`: the “% Inhibition” value is on record as -4% and the Z score was determined as 0.71.

Regarding `CCCNC(=O)NCCc1ncc(C)n1C(C)C`, the “% Inhibition” value is reported as -7% and the Z score was found to be 0.71.
